Measurements taken from publication PMC4336329 (PLoS ONE, 2015).
In all, about 310,000 compounds went through this assay and about 2,200 (0.71%) showed an effect of 50% or more. Effects have a minus sign here. Some of the results follow.

Molecular target: human ether-à-go-go-related gene (hERG) potassium channel (human, UniProt Q12809)
Test: primary screen, population patch clamp on CHO cells stably expressing hERG

Sequence of human ether-à-go-go-related gene (hERG) potassium channel (Q12809 whole entry, looked up): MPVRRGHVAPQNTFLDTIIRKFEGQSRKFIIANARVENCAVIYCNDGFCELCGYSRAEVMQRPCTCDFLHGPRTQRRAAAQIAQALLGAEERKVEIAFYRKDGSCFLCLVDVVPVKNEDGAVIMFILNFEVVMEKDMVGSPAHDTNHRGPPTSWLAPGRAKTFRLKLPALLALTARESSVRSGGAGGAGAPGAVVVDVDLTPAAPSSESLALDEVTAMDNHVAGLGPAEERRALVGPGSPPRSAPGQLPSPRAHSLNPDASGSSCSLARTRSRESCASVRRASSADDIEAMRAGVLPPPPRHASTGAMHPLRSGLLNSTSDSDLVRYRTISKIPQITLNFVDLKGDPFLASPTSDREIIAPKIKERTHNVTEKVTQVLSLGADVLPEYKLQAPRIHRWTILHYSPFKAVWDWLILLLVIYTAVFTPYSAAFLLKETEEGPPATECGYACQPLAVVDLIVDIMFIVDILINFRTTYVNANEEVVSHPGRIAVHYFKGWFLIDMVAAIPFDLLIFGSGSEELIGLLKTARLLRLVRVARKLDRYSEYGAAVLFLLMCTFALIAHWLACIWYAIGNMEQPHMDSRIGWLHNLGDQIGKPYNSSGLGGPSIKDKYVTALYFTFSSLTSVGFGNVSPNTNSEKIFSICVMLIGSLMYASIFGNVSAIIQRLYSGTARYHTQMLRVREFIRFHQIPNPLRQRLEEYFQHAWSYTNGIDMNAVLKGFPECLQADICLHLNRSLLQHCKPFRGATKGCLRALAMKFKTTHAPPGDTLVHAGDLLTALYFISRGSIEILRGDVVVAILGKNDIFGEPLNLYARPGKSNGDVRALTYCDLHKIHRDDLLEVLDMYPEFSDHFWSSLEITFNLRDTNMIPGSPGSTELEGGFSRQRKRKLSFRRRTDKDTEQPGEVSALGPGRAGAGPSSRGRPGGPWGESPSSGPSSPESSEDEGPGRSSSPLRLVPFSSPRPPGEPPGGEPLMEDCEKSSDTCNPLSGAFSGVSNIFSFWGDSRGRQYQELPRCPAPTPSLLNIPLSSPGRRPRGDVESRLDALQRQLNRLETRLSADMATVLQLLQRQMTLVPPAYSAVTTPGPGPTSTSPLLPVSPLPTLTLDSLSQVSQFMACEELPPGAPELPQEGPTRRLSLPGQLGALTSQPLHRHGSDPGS

SMILES	hERG current change (%, negative = inhibition) at 1uM [%]
Cc1ccc(/C=C/C(=O)O)cc1S(=O)(=O)N1CCc2ccccc2C1	19
Cc1ccccc1N=C(NOCc1ccccc1)c1nonc1N	11.6
COc1cccc(CNC(=O)c2nnn(CC(=O)Nc3c(C)cccc3C)c2N)c1	16
O=C(CNS(=O)(=O)c1ccc(Br)cc1)NC1CCCC1	19.4
Cc1ccc(N(CC(=O)NC2CCCC2)C(=O)CNC(=O)c2cccs2)cc1F	20.1
CCCCS(=O)(=O)N1CN(S(=O)(=O)CCCC)C2NC(=O)NC21 (centres unmarked)	5.79
COc1ccc(-c2cc(N3CCCC3)n3ncnc3n2)cc1	-6.72
NS(=O)(=O)c1cccc(NC(=O)CSc2ncc(C(F)(F)F)cc2Cl)c1	8.83
Cn1c(=O)c2c(SCC(=O)N3CCCCC3)nc(-c3ccccc3F)nc2n(C)c1=O	17
N#C/C(=C\c1cccn1-c1ccccc1)C(=O)NC1CCCCC1	12
CCOC(=O)c1cnc2c(-c3ccccc3)c(C)nn2c1N	7.34
Cl.O=c1cc(CN2CCNCC2)nc2sccn12	7.27
CCOC(=O)c1c(NC(=O)C(C)Sc2cn(C)c3ccccc23)sc2c1CCC2 (centres unmarked)	16.7
Cc1c(-n2c(SC(C)C(=O)NC(N)=O)nc3ccccc3c2=O)c(=O)n(-c2ccccc2)n1C (centres unmarked)	11.4
CCc1nn(C(C)C(=O)NC2CCCCCC2)c(=O)c2cc3occc3n12 (centres unmarked)	-3.97
CCN(CC(=O)Nc1ccc(NC(C)=O)cc1)C(=O)CCCOc1cccc(C)c1	6.48
Cc1ccc2nc(N3CC(C)OC(C)C3)nc(-c3ccccc3)c2c1 (centres unmarked)	10
Cc1cc2cc(CNC(=O)NC3CCCCC3)ccc2n1C	2.93
O=C(NCCn1ccc2ccccc21)c1ccc(S(=O)(=O)N2CCCCC2)cc1	5.93

SMILES	hERG current change (%, negative = inhibition) at 1uM [%]
O=C(/C=C/c1ccccc1[N+](=O)[O-])NCc1cccnc1	14
O=C(/C=C/c1ccc(F)cc1)NC(=S)N1CCOCC1	9.09
CCOc1ccccc1NC(=O)NC(C)c1ccncc1 (centres unmarked)	8.99
Cc1nn(Cc2ccc([N+](=O)[O-])cc2)c(=O)n1-c1ccc(Cl)cc1	-23.7
COc1cc(NC(=O)C2CC(c3c(F)cccc3Cl)=NO2)cc(OC)c1OC (centres unmarked)	-1.02
COCCNc1oc(Cc2cccc3ccccc23)nc1C#N	13.3
Cc1cc(C)c(O)c(-c2cc(C(=O)Nc3c(C)n(C)n(-c4ccccc4)c3=O)[nH]n2)c1	-2.72
CSc1ccc(S(=O)(=O)N2CCC(C(=O)NC3CC3)CC2)cc1	9.26
Cc1ccc(-c2nnc(SCC(=O)NNC(=O)COc3cccc4ccccc34)n2C)cc1	9.81
CCC(=O)Nc1ccc(Nc2nc(C)c([N+](=O)[O-])c(Nc3ccc(NC(=O)CC)cc3)n2)cc1	10.5
CC1=C(C(=O)OC(C)(C)C)C(c2ccco2)C(C#N)=C(N)O1 (centres unmarked)	20.2
Brc1ccc2c(c1)[C@H]1OCC[C@H]1[C@@H](c1cccs1)N2	9.78
COc1ccc(-c2[nH]nc3c2C(c2ccsc2)C(C#N)=C(N)O3)cc1 (centres unmarked)	19.5
COc1cc(C(C)=O)ccc1OCc1cc(C(=O)N(C)CCC2CCCCO2)no1 (centres unmarked)	26.5
O=C(COC(=O)c1ccccc1C(=O)c1ccc(Cl)c([N+](=O)[O-])c1)NC1CCCCCC1	14.6
Cc1sc2nc(CSCC(=O)NC3(C#N)CCCCC3)[nH]c(=O)c2c1C	20.1
O=[N+]([O-])c1cccc(C2(O)COc3ccccc3O2)c1 (centres unmarked)	11.6
CCOc1ccc(OCC)c(S(=O)(=O)NC2CC(C)(C)NC(C)(C)C2)c1	14.7
COc1ccc(OCC(=O)Nc2c3c(nn2C(C)(C)C)CS(=O)(=O)C3)cc1	3.32

SMILES	hERG current change (%, negative = inhibition) at 1uM [%]
COc1ccccc1-c1cc(C(=O)N2CCCC2)no1	0.778
CC(C)(C)OC(=O)NCC(=O)Oc1cc2oc(=O)cc(-c3ccccc3)c2cc1Cl	5.72
CCOC(=O)CNC1CC(=O)N(c2ccc(Br)cc2)C1=O (centres unmarked)	21.8
CCOc1ccc(C(CC(=O)O)NC(=O)C23CC4CC(CC(C4)C2)C3)cc1OC (centres unmarked)	14.3
Cc1ccc(OCc2cc(C(=O)N(C)CC3CCOCC3)no2)cc1C	-0.274
COc1cc2c(N3CCOCC3)cc(O)c(CC(=O)Nc3ccccc3)c2cc1OC	15.2
Cc1ccc(C)c(NC(=O)CN2C(=O)NC(C)(c3ccc4c(c3)OCCO4)C2=O)c1 (centres unmarked)	8.8
COc1cc(CNc2ncn[nH]2)ccc1OCc1ccccc1C	7.95
Cc1nc2ccc(NC(=O)c3cccc(C(F)(F)F)c3)cc2o1	1.84
O=C(CN1C(=O)CCC1=O)Nc1ccc(Br)cc1	4
Cc1cc(C(=O)NCc2cccs2)ccc1[N+](=O)[O-]	-0.699
C=Cn1cc[n+](CC(=O)c2cc(C(C)(C)C)c(O)c(C(C)(C)C)c2)c1.[Br-]	18
Cc1ccc(C)c(N(C(=O)Cn2nnc(-c3cccs3)n2)C(C(=O)NC2CC2)c2ccc(C)o2)c1 (centres unmarked)	1.75
Cc1nc2c3ccccc3nc(SCC(=O)N3CC(C)CC(C)C3)n2n1 (centres unmarked)	0.521
Cc1c(C=O)c2ccccn2c1C(=O)c1cccc([N+](=O)[O-])c1	10.2
O=c1[nH]c(=S)[nH]c2[nH]c(=S)[nH]c12	14.2
O=C(CSc1nc(O)c(C2CCCCC2)c(=O)[nH]1)Nc1ccc(F)cc1	16
COc1ccc(CNC(=O)c2ccc(NC(=O)CC3SC(N4CCCCC4)=NC3=O)cc2)cc1 (centres unmarked)	8.15
